Measurements published in patent US20110319597A1 (CAPHALON AUSTRALIA, published 2011).

Target: T1, recombinant human TNFα (CytoLab) (human, UniProt P01375 fragment)
T1 construct: coated on the ELISA plate at 1 µg/ml; also called Tumour necrosis factor alpha
Test: ELISA on coated human TNFα

T1 sequence (P01375 77-233 limits assumed): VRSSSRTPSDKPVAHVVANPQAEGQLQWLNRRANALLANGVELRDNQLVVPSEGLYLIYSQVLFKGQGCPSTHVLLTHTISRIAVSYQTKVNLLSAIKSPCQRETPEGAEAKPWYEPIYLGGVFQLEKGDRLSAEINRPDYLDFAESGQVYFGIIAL

Binder | A450 (AU)
TNFα dAb Fc variant G66D (Fc fusion, name in Kabat numbering) DIQMTQSPSSLSASVGDRVTITCRASQAIDSYLHWYQQKPGKAPKLLIYSASNLETGVPSRFSGSDSGTDFTLTISSLLPEDFATYYCQQVVWRPFTFGQGTKVEIKRV[human IgG1 Fc with changes left out] | 0.808
TNFα dAb Fc variant G66L (Fc fusion, name in Kabat numbering) DIQMTQSPSSLSASVGDRVTITCRASQAIDSYLHWYQQKPGKAPKLLIYSASNLETGVPSRFSGSLSGTDFTLTISSLLPEDFATYYCQQVVWRPFTFGQGTKVEIKRV[human IgG1 Fc with changes left out] | 0.842
TNFα dAb Fc variant G68P (Fc fusion, name in Kabat numbering) DIQMTQSPSSLSASVGDRVTITCRASQAIDSYLHWYQQKPGKAPKLLIYSASNLETGVPSRFSGSGSPTDFTLTISSLLPEDFATYYCQQVVWRPFTFGQGTKVEIKRV[human IgG1 Fc with changes left out] | 0.827
TNFα dAb Fc variant G68K (Fc fusion, name in Kabat numbering) DIQMTQSPSSLSASVGDRVTITCRASQAIDSYLHWYQQKPGKAPKLLIYSASNLETGVPSRFSGSGSKTDFTLTISSLLPEDFATYYCQQVVWRPFTFGQGTKVEIKRV[human IgG1 Fc with changes left out] | 0.587
TNFα dAb Fc variant G66S (Fc fusion, name in Kabat numbering) DIQMTQSPSSLSASVGDRVTITCRASQAIDSYLHWYQQKPGKAPKLLIYSASNLETGVPSRFSGSSSGTDFTLTISSLLPEDFATYYCQQVVWRPFTFGQGTKVEIKRV[human IgG1 Fc with changes left out] | 0.393
TNFα dAb Fc variant I48D (Fc fusion, name in Kabat numbering) DIQMTQSPSSLSASVGDRVTITCRASQAIDSYLHWYQQKPGKAPKLLDYSASNLETGVPSRFSGSGSGTDFTLTISSLLPEDFATYYCQQVVWRPFTFGQGTKVEIKRV[human IgG1 Fc with changes left out] | 0.239
TNFα dAb Fc variant I48A (Fc fusion, name in Kabat numbering) DIQMTQSPSSLSASVGDRVTITCRASQAIDSYLHWYQQKPGKAPKLLAYSASNLETGVPSRFSGSGSGTDFTLTISSLLPEDFATYYCQQVVWRPFTFGQGTKVEIKRV[human IgG1 Fc with changes left out] | 1.25
TNFα dAb Fc variant G66P (Fc fusion, name in Kabat numbering) DIQMTQSPSSLSASVGDRVTITCRASQAIDSYLHWYQQKPGKAPKLLIYSASNLETGVPSRFSGSPSGTDFTLTISSLLPEDFATYYCQQVVWRPFTFGQGTKVEIKRV[human IgG1 Fc with changes left out] | 0.184
TNFα dAb Fc variant G68H (Fc fusion, name in Kabat numbering) DIQMTQSPSSLSASVGDRVTITCRASQAIDSYLHWYQQKPGKAPKLLIYSASNLETGVPSRFSGSGSHTDFTLTISSLLPEDFATYYCQQVVWRPFTFGQGTKVEIKRV[human IgG1 Fc with changes left out] | 0.325
TNFα dAb Fc variant G68L (Fc fusion, name in Kabat numbering) DIQMTQSPSSLSASVGDRVTITCRASQAIDSYLHWYQQKPGKAPKLLIYSASNLETGVPSRFSGSGSLTDFTLTISSLLPEDFATYYCQQVVWRPFTFGQGTKVEIKRV[human IgG1 Fc with changes left out] | 0.443
TNFα dAb Fc variant G68Y (Fc fusion, name in Kabat numbering) DIQMTQSPSSLSASVGDRVTITCRASQAIDSYLHWYQQKPGKAPKLLIYSASNLETGVPSRFSGSGSYTDFTLTISSLLPEDFATYYCQQVVWRPFTFGQGTKVEIKRV[human IgG1 Fc with changes left out] | 0.305
TNFα dAb Fc variant I48H (Fc fusion, name in Kabat numbering) DIQMTQSPSSLSASVGDRVTITCRASQAIDSYLHWYQQKPGKAPKLLHYSASNLETGVPSRFSGSGSGTDFTLTISSLLPEDFATYYCQQVVWRPFTFGQGTKVEIKRV[human IgG1 Fc with changes left out] | 0.234
TNFα dAb Fc variant I48K (Fc fusion, name in Kabat numbering) DIQMTQSPSSLSASVGDRVTITCRASQAIDSYLHWYQQKPGKAPKLLKYSASNLETGVPSRFSGSGSGTDFTLTISSLLPEDFATYYCQQVVWRPFTFGQGTKVEIKRV[human IgG1 Fc with changes left out] | 0.253
TNFα dAb Fc variant G68Q (Fc fusion, name in Kabat numbering) DIQMTQSPSSLSASVGDRVTITCRASQAIDSYLHWYQQKPGKAPKLLIYSASNLETGVPSRFSGSGSQTDFTLTISSLLPEDFATYYCQQVVWRPFTFGQGTKVEIKRV[human IgG1 Fc with changes left out] | 0.889
TNFα dAb Fc variant G66H (Fc fusion, name in Kabat numbering) DIQMTQSPSSLSASVGDRVTITCRASQAIDSYLHWYQQKPGKAPKLLIYSASNLETGVPSRFSGSHSGTDFTLTISSLLPEDFATYYCQQVVWRPFTFGQGTKVEIKRV[human IgG1 Fc with changes left out] | 0.883

Results, then the binder that gave them:

A450 (AU) | Binder
0.203 | TNFα dAb Fc variant I75Q (Fc fusion, name in Kabat numbering) DIQMTQSPSSLSASVGDRVTITCRASQAIDSYLHWYQQKPGKAPKLLIYSASNLETGVPSRFSGSGSGTDFTLTQSSLLPEDFATYYCQQVVWRPFTFGQGTKVEIKRV[human IgG1 Fc with changes left out]
0.802 | TNFα dAb Fc variant K39A (Fc fusion, name in Kabat numbering) DIQMTQSPSSLSASVGDRVTITCRASQAIDSYLHWYQQAPGKAPKLLIYSASNLETGVPSRFSGSGSGTDFTLTISSLLPEDFATYYCQQVVWRPFTFGQGTKVEIKRV[human IgG1 Fc with changes left out]
0.408 | TNFα dAb Fc variant I48Y (Fc fusion, name in Kabat numbering) DIQMTQSPSSLSASVGDRVTITCRASQAIDSYLHWYQQKPGKAPKLLYYSASNLETGVPSRFSGSGSGTDFTLTISSLLPEDFATYYCQQVVWRPFTFGQGTKVEIKRV[human IgG1 Fc with changes left out]
0.201 | TNFα dAb Fc variant I75H (Fc fusion, name in Kabat numbering) DIQMTQSPSSLSASVGDRVTITCRASQAIDSYLHWYQQKPGKAPKLLIYSASNLETGVPSRFSGSGSGTDFTLTHSSLLPEDFATYYCQQVVWRPFTFGQGTKVEIKRV[human IgG1 Fc with changes left out]
0.858 | TNFα dAb Fc variant I75L (Fc fusion, name in Kabat numbering) DIQMTQSPSSLSASVGDRVTITCRASQAIDSYLHWYQQKPGKAPKLLIYSASNLETGVPSRFSGSGSGTDFTLTLSSLLPEDFATYYCQQVVWRPFTFGQGTKVEIKRV[human IgG1 Fc with changes left out]
0.754 | TNFα dAb Fc variant K39D (Fc fusion, name in Kabat numbering) DIQMTQSPSSLSASVGDRVTITCRASQAIDSYLHWYQQDPGKAPKLLIYSASNLETGVPSRFSGSGSGTDFTLTISSLLPEDFATYYCQQVVWRPFTFGQGTKVEIKRV[human IgG1 Fc with changes left out]
0.265 | TNFα dAb Fc variant I48Q (Fc fusion, name in Kabat numbering) DIQMTQSPSSLSASVGDRVTITCRASQAIDSYLHWYQQKPGKAPKLLQYSASNLETGVPSRFSGSGSGTDFTLTISSLLPEDFATYYCQQVVWRPFTFGQGTKVEIKRV[human IgG1 Fc with changes left out]
0.293 | TNFα dAb Fc variant I48S (Fc fusion, name in Kabat numbering) DIQMTQSPSSLSASVGDRVTITCRASQAIDSYLHWYQQKPGKAPKLLSYSASNLETGVPSRFSGSGSGTDFTLTISSLLPEDFATYYCQQVVWRPFTFGQGTKVEIKRV[human IgG1 Fc with changes left out]
0.167 | TNFα dAb Fc variant I75D (Fc fusion, name in Kabat numbering) DIQMTQSPSSLSASVGDRVTITCRASQAIDSYLHWYQQKPGKAPKLLIYSASNLETGVPSRFSGSGSGTDFTLTDSSLLPEDFATYYCQQVVWRPFTFGQGTKVEIKRV[human IgG1 Fc with changes left out]
0.18 | TNFα dAb Fc variant I75K (Fc fusion, name in Kabat numbering) DIQMTQSPSSLSASVGDRVTITCRASQAIDSYLHWYQQKPGKAPKLLIYSASNLETGVPSRFSGSGSGTDFTLTKSSLLPEDFATYYCQQVVWRPFTFGQGTKVEIKRV[human IgG1 Fc with changes left out]
0.196 | TNFα dAb Fc variant I75A (Fc fusion, name in Kabat numbering) DIQMTQSPSSLSASVGDRVTITCRASQAIDSYLHWYQQKPGKAPKLLIYSASNLETGVPSRFSGSGSGTDFTLTASSLLPEDFATYYCQQVVWRPFTFGQGTKVEIKRV[human IgG1 Fc with changes left out]
0.193 | TNFα dAb Fc variant I48P (Fc fusion, name in Kabat numbering) DIQMTQSPSSLSASVGDRVTITCRASQAIDSYLHWYQQKPGKAPKLLPYSASNLETGVPSRFSGSGSGTDFTLTISSLLPEDFATYYCQQVVWRPFTFGQGTKVEIKRV[human IgG1 Fc with changes left out]
0.183 | TNFα dAb Fc variant I75P (Fc fusion, name in Kabat numbering) DIQMTQSPSSLSASVGDRVTITCRASQAIDSYLHWYQQKPGKAPKLLIYSASNLETGVPSRFSGSGSGTDFTLTPSSLLPEDFATYYCQQVVWRPFTFGQGTKVEIKRV[human IgG1 Fc with changes left out]
0.194 | TNFα dAb Fc variant I75S (Fc fusion, name in Kabat numbering) DIQMTQSPSSLSASVGDRVTITCRASQAIDSYLHWYQQKPGKAPKLLIYSASNLETGVPSRFSGSGSGTDFTLTSSSLLPEDFATYYCQQVVWRPFTFGQGTKVEIKRV[human IgG1 Fc with changes left out]
0.168 | TNFα dAb Fc variant I75Y (Fc fusion, name in Kabat numbering) DIQMTQSPSSLSASVGDRVTITCRASQAIDSYLHWYQQKPGKAPKLLIYSASNLETGVPSRFSGSGSGTDFTLTYSSLLPEDFATYYCQQVVWRPFTFGQGTKVEIKRV[human IgG1 Fc with changes left out]
